For this assay, the system named is NCI-H322M lung. Put plainly: NCI-60 cell line screen, 48 h.

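Five compound concentrations were applied to cells in 96-well plates for 48 hours; endpoints were derived by simple linear interpolation of the resulting dose-response curve. GI50: concentration for 50% inhibition of growth. At the TGI there is no net growth.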

In the case of `CCOP(=O)(CC(F)(F)C(F)(F)F)OCC`, the GI50 was 16 µM and the TGI turned out to be 37.5 µM.
Turning to `COc1ccc2c3nc4cc(C)c(C)cc4nc3n(CCN(C)C)c2c1`, the GI50 was 2.41 µM and the TGI was found to be 13.2 µM.
As for `CN(C)CCNC(=O)OCCCCOc1cc(O)c2c(=O)cc(-c3ccccc3)oc2c1`, the GI50 is 6.64 µM and the TGI worked out at 19.8 µM.
For `O=C(Nc1ccc(I)cc1)Nc1nc2ccc([N+](=O)[O-])cc2s1`, the GI50 was 3.13 µM and the TGI is 11.7 µM.

Values taken from PubChem BioAssay (NCI).
